Results from the supplement of paper PMC12217912.
Some of the results follow. Sequences were assembled here from the parent chain. Inactive controls read about 0.05.

B1: TEV protease; numbered along this chain (parent)
chain: MGESLFKGPRDYNPISSSICHLTNESDGHTTSLYGIGFGPFIITNKHLFRRNNGTLVVQSLHGVFKVKDTTTLQQHLVDGRDMIIIRMPKDFPPFPQKLKFREPQREERICLVTTNFQTKSMSSMVSDTSCTFPSGDGIFWKHWIQTKDGQCGSPLVSTRDGFIVGIHSASNFTNTNNYFTSVPKNFMELLTNQEAQQWVSGWRLNADSVLWGGHKVFMVKPEEPFQPVKEATQL

Variants of: B1
Test: raw area under fraction-flipped curve 0-4 h after induction (AUC4h, not background-subtracted), DNA-recorder readout of cleavage of the substrate (dimensionless); higher = more cleavage of the substrate by the protease variant
Conditions: temperature: 34 °C; time window: 0-4 h after rhamnose induction
Protocol: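 In vivo DNA recorder in E. coli TOP10(DE3) ΔrhaA at 34 °C. Each TEVp single-site mutant (parent TEVp 0) is paired with a single-site variant of the 7-mer TEVs (canonical ENLYFQ|S). The substrate sits between flexible linkers in a Bxb1-sfGFP-TEVs-SsrA fusion, so cleavage stabilises Bxb1 and speeds flipping of a recombination array, read by NGS. The value is the raw area under the fraction-flipped curve over 0-4 h after rhamnose induction (AUC4h), with ≥20 reads per time point. It is not background-subtracted; inactive controls average about 0.047.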
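Note: Bxb1 expression induced with 0.2% (w/v) L-rhamnose at OD600 near 0.5, cultures sampled hourly, flipped fraction per protease–substrate barcode pair counted by paired-end Illumina sequencing.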

| Variant | area with substrate ENLYAQS | area with substrate ENLYCQS | area with substrate ENLYDQS | area with substrate ENLYEQS | area with substrate ENLYGQS | area with substrate ENLYHQS | area with substrate ENLYIQS | area with substrate ENLYKQS | area with substrate ENLYLQS | area with substrate ENLYMQS | area with substrate ENLYNQS | area with substrate ENLYPQS | area with substrate ENLYQQS | area with substrate ENLYRQS | area with substrate ENLYSQS | area with substrate ENLYTQS | area with substrate ENLYVQS | area with substrate ENLYWQS | area with substrate ENLYYQS |
| --- | --- | --- | --- | --- | --- | --- | --- | --- | --- | --- | --- | --- | --- | --- | --- | --- | --- | --- | --- |
| MGESLFKGPRDYNPISSSICHLTNESDGHTTSLYGIGFGPFIITNKHLFRRNNGTLVVQSLHGVFKVKDTTTLQQHLVDGRDMIIIRMPKDFPPFPQKLKFREPQREERICLVTTNFQTKSMSSMVSDTSCTFPSGDGIFWKHWIQTKDEQCGSPLVSTRDGFIVGIHSASNFTNTNNYFTSVPKNFMELLTNQEAQQWVSGWRLNADSVLWGGHKVFMVKPEEPFQPVKEATQL [G150E] | 0.0612 | 0.0634 | 0.0581 | 0.0651 | 0.0482 | 0.0669 | 0.0614 | 0.0578 | 0.0538 | 0.0551 | 0.0576 | 0.0581 | 0.0599 | 0.0592 | 0.0267 | 0.0683 | 0.0557 | 0.064 | 0.0517 |
| MGESLFKGPRDYNPISSSICHLTNESDGHTTILYGIGFGPFIITNKHLFRRNNGTLVVQSLHGVFKVKDTTTLQQHLVDGRDMIIIRMPKDFPPFPQKLKFREPQREERICLVTTNFQTKSMSSMVSDTSCTFPSGDGIFWKHWIQTKDGQCGSPLVSTRDGFIVGIHSASNFTNTNNYFTSVPKNFMELLTNQEAQQWVSGWRLNADSVLWGGHKVFMVKPEEPFQPVKEATQL [S32I] | 0.0722 |  | 0.0486 | 0.0732 | 0.0666 | 0.0509 | 0.116 | 0.0542 |  |  | 0.0694 | 0.0661 | 0.0709 | 0.0648 | 0.0323 | 0.0795 | 0.14 | 0.0726 | 0.0587 |
| MGESLFKGPRDYNPISSSICHLTNESDGHTTSLYGIGFGPFIITNKHLFRRNNGTLVVQSLHGVFKVKDTTTLQQHLVDGRDMIIIRMPKDFPPFPQKLKFREPQREERICYVTTNFQTKSMSSMVSDTSCTFPSGDGIFWKHWIQTKDGQCGSPLVSTRDGFIVGIHSASNFTNTNNYFTSVPKNFMELLTNQEAQQWVSGWRLNADSVLWGGHKVFMVKPEEPFQPVKEATQL [L112Y] | 0.0551 | 0.0592 | 0.0681 | 0.0601 | 0.0564 | 0.0688 | 0.0624 | 0.0393 |  | 0.0577 | 0.0527 |  | 0.0475 |  | 0.071 | 0.0947 | 0.0404 | 0.0606 |  |
| MGESLFKGPRDYNPISSSICHLTNESDGHTTSLYGIGFGPFIITNKHLFRRNNGTLVVQSLHGVFKVKDTTTLQQHLVDGRDMIIIRMPKDFPPFPQKLKFREPQREERICLVTTNFQTKSMSSMVSDTSCTFPSGDGIFWKHWIQTKDGQCGSPLVSTRDGFIVGIHSASNFTNTNNYFTSVPKNFMELLTNQEAWQWVSGWRLNADSVLWGGHKVFMVKPEEPFQPVKEATQL [Q197W] | 0.0699 | 0.0791 | 0.0576 | 0.0629 | 0.0727 | 0.0607 | 0.0769 | 0.0096 |  | 0.0725 | 0.0719 | 0.0536 | 0.0583 | 0.065 | 0.066 | 0.0705 | 0.123 | 0.0657 | 0.0515 |
| MGESLFKGPRDYNPISSSICHLTNESDGHTTSLYGIGFGPFIITNKHLFRRNNGTLVVQSLHGVFKVKDTTTLQQHLVDGRDMIIIRMPKDFPPFPQKLKFREPQREERICLVTTNFQTKSMSSMVSDTSCTFPSGDGIFWKHWIQTKDGQCGSPLVSTYDGFIVGIHSASNFTNTNNYFTSVPKNFMELLTNQEAQQWVSGWRLNADSVLWGGHKVFMVKPEEPFQPVKEATQL [R160Y] | 0.0714 |  | 0.0617 | 0.0733 | 0.0655 | 0.0702 | 0.148 | 0.0648 | 0.0923 | 0.0727 |  | 0.0726 | 0.0566 | 0.0488 |  | 0.0707 | 0.151 | 0.0774 | 0.0556 |
| MGESLFKGPRDYNPISSSRCHLTNESDGHTTSLYGIGFGPFIITNKHLFRRNNGTLVVQSLHGVFKVKDTTTLQQHLVDGRDMIIIRMPKDFPPFPQKLKFREPQREERICLVTTNFQTKSMSSMVSDTSCTFPSGDGIFWKHWIQTKDGQCGSPLVSTRDGFIVGIHSASNFTNTNNYFTSVPKNFMELLTNQEAQQWVSGWRLNADSVLWGGHKVFMVKPEEPFQPVKEATQL [I19R] | 0.0529 | 0.0593 | 0.0418 | 0.0543 | 0.0564 | 0.0621 | 0.0528 |  | 0.0535 | 0.0564 | 0.0474 | 0.0558 |  | 0.0373 | 0.0486 |  | 0.0402 | 0.0543 |  |
| MGESLFKGPRDYNPISSSICHLTNESDGHTTSLYGIGFGPFIITNKHLFRRNNGTLVVQSLHGVFKVKDTTTLQQHLVDGRDMIIIRMPKDFPPFPQKLKFREPQREERICLVTTNFQTKSMSSMVSDTSCTFPSGDGIFWKHWIQTKDGQCGSPLVSTRDGFIVGIHSASNFTNTNNYFTSVPKNFMELLTNQEAQQWVSGWRLNADSVLWGGHKVFMVKPEAPFQPVKEATQL [E224A] | 0.0714 | 0.0771 | 0.0524 | 0.0688 | 0.0878 | 0.0666 | 0.122 | 0.076 |  | 0.0791 | 0.061 | 0.0761 | 0.0592 | 0.0705 | 0.0703 |  | 0.0912 | 0.0725 | 0.0591 |
| MGESLFKGPRDYNPISSSICHLTNESDGHTTSLYGIGFGPFIITNKHLFRRNNGTLVVQSLHGVFKVKDTTTLQQHLVDGRDMIIIRMPKDFPPFPQKLKFREPQREERICLVTTNFQTKSMSSMVSDTSCTFHSGDGIFWKHWIQTKDGQCGSPLVSTRDGFIVGIHSASNFTNTNNYFTSVPKNFMELLTNQEAQQWVSGWRLNADSVLWGGHKVFMVKPEEPFQPVKEATQL [P134H] | 0.0692 | 0.0728 | 0.0683 | 0.0655 | 0.0613 | 0.0445 | 0.0876 | 0.065 |  | 0.0706 | 0.0634 | 0.074 | 0.0682 | 0.0646 | 0.0662 | 0.0548 | 0.0839 | 0.0634 | 0.0535 |
